Publication PMC6919601, “Identification of Plasmodium dipeptidyl aminopeptidase allosteric inhibitors by high throughput screening” (PLoS ONE, 2019)
Values joined by “and” are separate entries in the source; they are usually repeats but may differ in a detail not shown here. Equal values may be shown once. Out of some 110,000 compounds screened, about 230 (0.21%) showed an effect of 50% or more. The list shows a part of the results.

The molecules below were run against DPAP1 (Plasmodium falciparum, UniProt Q8IIJ9) (assay: primary screen, percent inhibition; read by cleavage of a fluorogenic dipeptide substrate; higher = more effect of the substance).
DPAP1, sequence (Q8IIJ9 whole entry, looked up): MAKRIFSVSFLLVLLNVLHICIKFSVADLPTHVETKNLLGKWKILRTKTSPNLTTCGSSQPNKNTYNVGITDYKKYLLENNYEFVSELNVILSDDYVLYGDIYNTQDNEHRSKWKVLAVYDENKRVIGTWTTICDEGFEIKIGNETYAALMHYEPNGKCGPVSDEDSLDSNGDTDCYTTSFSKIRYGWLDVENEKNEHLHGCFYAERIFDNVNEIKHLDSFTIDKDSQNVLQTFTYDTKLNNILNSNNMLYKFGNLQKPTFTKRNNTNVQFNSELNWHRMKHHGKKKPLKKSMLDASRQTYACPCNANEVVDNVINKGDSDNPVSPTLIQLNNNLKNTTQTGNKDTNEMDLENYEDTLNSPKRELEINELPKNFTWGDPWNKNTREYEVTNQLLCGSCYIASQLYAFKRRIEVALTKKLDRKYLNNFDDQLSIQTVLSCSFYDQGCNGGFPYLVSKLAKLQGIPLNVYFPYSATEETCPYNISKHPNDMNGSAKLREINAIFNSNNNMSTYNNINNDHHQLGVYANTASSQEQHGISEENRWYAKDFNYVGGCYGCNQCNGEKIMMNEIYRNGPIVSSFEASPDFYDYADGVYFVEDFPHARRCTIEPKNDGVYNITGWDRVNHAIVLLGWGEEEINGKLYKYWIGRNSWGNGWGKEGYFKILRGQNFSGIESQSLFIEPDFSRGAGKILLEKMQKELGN
Design: species or system P. falciparum D10 trophozoite lysates; single well
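Note: 30 min substrate incubation versus DMSO and 10 µM JCP410 controls.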

SMILES | % Inhibition @ 10 uM
CC1OCC2C(CO1)C2(Cl)Cl (stereo not drawn) | -5.28%
CCc1cc2c(NCCCC(=O)O)nc(C)nc2s1 | -1.28%
CN1C(=O)/C(=C\c2ccc(OCC#N)cc2)S/C1=N/c1ccccc1 | 0.214%
CC(C)(C)c1ccc(OCCCCCN2CCCC2)cc1 | -2.18%
O=C(NCc1cccnc1)c1nc(-c2ccc(Cl)cc2)n2c1CCCCC2 | 1.43%
O=C(Nc1ccc(F)c(Cl)c1)C1CC2CCC1C2 (stereo not drawn) | 3.29%
COc1ccccc1C(=O)CC(=O)c1ccccc1 | 0.674%
Cc1cc(C)c2oc(C(=O)N(Cc3ccc(C(C)(C)C)cc3)C3CCS(=O)(=O)C3)cc(=O)c2c1 (stereo not drawn) | 5.06%
CCC[C@@H](/C=C/S(=O)(=O)c1ccccc1)NC(=O)C1(NC(=O)N2CCN(C)CC2)CCCCC1 | -8.26%
Cc1ccc(-c2onc(C)c2C)cc1S(=O)(=O)NCc1cccnc1 | -7.06%
CCOc1cccc(-c2nc(O)c3c(n2)Oc2ccc(Cl)cc2C3)c1O | 6.98%
N#Cc1ccc(/C=C/c2ccc(F)cc2)cc1 | -1.21%
COc1ccc(Br)cc1CNCCCSc1nnnn1C | -6.6%
O=C(OCC1CCS(=O)(=O)C1)c1ccccc1 (stereo not drawn) | 3.83%
O=c1[nH]c(=O)n(-c2ccc(Cl)cc2)c2c1C(C(F)(F)F)(C(F)(F)F)NC(c1ccncc1)=N2 | -1.57%
COCCNC(=O)C1c2ccccc2C(=O)N(CC(C)C)C1c1cccs1 (stereo not drawn) | -5.61%
Nc1c(-c2nc(-c3cccs3)no2)nnn1-c1ccccc1C(F)(F)F | -2.15%
CC(C)(C)[C@@H](NC(=O)OCc1ccccc1)C(=O)NCC#N | -3.14%
NC(=S)N/N=C/c1c(-c2ccccc2)[nH]c2ccccc12 | 4.86%
O=C(c1cc2ccccc2cc1O)N1N=C(C(F)F)CC1(O)C(F)F (stereo not drawn) | 0.687% and 2.64%
COc1ccc(S(=O)(=O)N(CC(=O)Nc2c(F)cccc2F)C2CCCCC2)cc1OC | -3.05%
Cc1ccc(C(=O)NC(=O)CSc2nccc(O)n2)cc1 | 7.25%
O=C(COc1cccc2ccccc12)Nc1ccc(S(=O)(=O)N2CCCCCC2)cc1 | -2.03%
COc1ccc(-c2nnc3n2C(C)(C)Cc2cc(C)c(C)cc2-3)cc1 | -2.35%
CC1CCN(S(=O)(=O)N2CCC(C(=O)NC3CCCCC3C)CC2)CC1 (stereo not drawn) | 0.387%
CCOc1cc(/C=C2/NC(=O)N(c3cccc(Cl)c3)C2=O)ccc1OCC(N)=O | -6.43%

SMILES | % Inhibition @ 10 uM
CCOc1ccc2nc(NC(=O)c3ccc(C(=O)c4ccccc4)cc3)sc2c1 | 4.95%
CC1(C)CC(=O)C2=C(C1)OC1=C(C(=O)CC(C)(C)C1)C2c1ccccc1C(F)(F)F | 3.74%
C=CCN(CC=C)S(=O)(=O)c1ccc(NC(=O)Nc2cccc(Cl)c2)cc1 | 1.83%
CN(C)CC/C=C1\c2cc(C(=O)O)ccc2CSc2ccccc21 | -7.31%
CN(C)CCNC(=O)c1ccc(CN2CC(=O)N3CCCCC3C2=O)cc1 (stereo not drawn) | 3.21%
O=C(CSc1nc2c(c(C(F)(F)F)n1)CCc1ccccc1-2)NCc1cccnc1 | 2.46%
O=C(O)c1ccc(OCCn2ccnc2)cc1 | 7.87%
Cc1ccccc1OCc1nn2c(-c3ccccc3Cl)nnc2s1 | -3.5%
O=C(CN1C(C(=O)c2ccccc2)=C(O)c2ccccc2S1(=O)=O)c1ccccc1 | -4.43%
CCC(C)c1c(O)nc(SCc2ccc(Cl)cc2)nc1O (stereo not drawn) | 37.6%
Cc1cc2n(n1)C(c1ccc(N3CCOCC3)cc1)Nc1c(C)cccc1-2 (stereo not drawn) | 0.83%
CC(=O)NC(C)(CC(=O)c1ccccc1)c1ccccc1 (stereo not drawn) | -3.04%
COc1ccc(N(CC(=O)Nc2c(C)cccc2C)S(C)(=O)=O)cc1Cl | -5.13%
Cc1ccc(-c2nc(CSCc3csc(C)c3C)c(C)o2)cc1 | 12.5%
O=[N+]([O-])c1ccc(N2CCN(Cc3ccsc3)CC2)cc1 | -5.41%
COC(=O)c1sccc1NC(=S)N1CCN(c2ccccn2)CC1 | -2.74%
Cc1onc(-c2ccccc2Cl)c1C(=O)O | 2.78%
COc1cc(C2=N/C(=C\c3ccc(C)o3)C(=O)O2)cc(OC)c1OC | -5.79%
COC(=O)c1ccc(NC(=O)C(Cc2ccccc2)N2C(=O)c3ccccc3C2=O)cc1 (stereo not drawn) | 14.4%
O=C(Nc1ccccc1)c1cccc(N2C(=O)C3C4C=CC(C4)C3C2=O)c1 (stereo not drawn) | 11.6%
CCOc1ccc2oc(=O)cc(CN3CCN(Cc4ccccc4F)CC3)c2c1 | 3.88%
CCc1ccc(NC(=O)CCOc2ccccc2)cc1 | 6.71%
CCOc1ccc(CN2CCN(Cc3cccc(Br)c3)CC2)cc1 | -7.18%
CCOc1ccc(C(=O)CCNCCC(=O)O)cc1 | 44.5%
CS(=O)(=O)C1=NN2C(=N)/C(=C\c3ccc(OCc4ccccc4)cc3)C(=O)N=C2S1 | -5.27%
COc1ccc(C(=O)N2C(C)CCCC2C)cc1OC (stereo not drawn) | -6.82%

SMILES | % Inhibition @ 10 uM
Cc1oc2c(CN(C)C)c(O)ccc2c(=O)c1-c1cnn(-c2ccccc2)c1 | -4.39%
CC1CC(=O)C2=C(C1)OC(N)=C(C#N)C2c1cccc(Br)c1 (stereo not drawn) | 0.317%
CSc1cccc(NC(=O)C2CCN(S(C)(=O)=O)CC2)c1 | -0.968%
CCC(C)(NC(=O)CN1C(=O)c2ccccc2C1=O)C(=O)Nc1c(C)cccc1C (stereo not drawn) | -8.3%
CC1CCCN(CCCNc2c(-c3ccc(C(C)C)cc3)c(=O)c2=O)C1 (stereo not drawn) | 2.24%
CCCSC1=C(C#N)C(c2ccc(F)cc2)CC(=O)N1 (stereo not drawn) | 3.61%
Cc1[nH]c2ccccc2c1CN1CCN(c2ccc([N+](=O)[O-])cc2)CC1 | -4.35%
CCOc1cc(CNCc2ccccc2)c(Cl)cc1OC | 0.316%
COc1ccc(/C(C)=N/c2sc3c(c2C#N)CCCC3)cc1OC | 13.5%
CC(C)CCNC(=O)CCC(=O)n1ncc2cc(Cl)ccc21 | -6.58%
O=C(O)c1ccc(Cc2ccc(C(=O)O)s2)o1 | -1.76%
Oc1cccc2ccc(N3CCOCC3)nc12 | 1.9%
COc1cccc(C(=O)Nc2ccc(NC(=O)c3cccc(C)c3)cc2)c1 | 1.99%
Cc1nnc2c(N3CCC(C(=O)O)CC3)nc3ccccc3n12 | 4.47%
CCOc1cc(C2C(C#N)=C(N)Oc3[nH]nc(-c4ccc(OC)cc4)c32)cc(Br)c1O (stereo not drawn) | -2.83%
CN(C)Cc1ccccc1C(O)c1ccccc1 (stereo not drawn) | 0.731%
O=C(Nc1cccc(N2C(=O)C3CCCCC3C2=O)c1)c1ccccc1 (stereo not drawn) | 9.82%
Cc1ccc(O)c(-c2[nH]nc3c2C(c2ccccc2F)N(Cc2cccnc2)C3=O)c1 (stereo not drawn) | 0.558%
COC(=O)CCSc1nccn1Cc1ccccc1 | -3.66%
COc1cc(-c2noc(CCCC(=O)NC3CCCCC3)n2)cc(OC)c1OC | -2.92%
CCc1ccc(C(C)NC(=O)CC#N)cc1 (stereo not drawn) | -1.65%
Cc1cc(Br)ccc1S(=O)(=O)NCc1ccccc1 | -2.91%
O=C(NCc1ccco1)NC1CCCCC1 | 2.59%
O=C(C1CCCC1)N1CCc2[nH]ncc2C1 | 3.75%
N#C/C(=C\c1ccco1)c1nc(-c2ccc(Cl)cc2)cs1 | 4.63%
COc1ccc(OC)c(C2CC(=O)Nc3c2cc(Br)c2ccccc32)c1 (stereo not drawn) | -6.36%

SMILES | % Inhibition @ 10 uM
CC(C)(C)C(=O)Nc1cc(NC(=O)C(C)(C)C)cc(C(=O)Nc2ccccc2)c1 | 6.79%
CCOC(=O)c1c(NC(=O)c2sc3nc(N)c(C#N)cc3c2N)sc2c1CCC2 | -1.68%
C=CC1CN2CCC1CC2[C@@H](OC(=O)C1CC1)c1ccnc2ccccc12 (stereo partly drawn) | 3.31%
COc1ccc(C(=O)Nc2ccc(Cl)cc2C(=O)Nc2cccnc2)cc1 | 1.03%
Cc1onc(-c2ccccc2Cl)c1C(=O)Nc1cccnc1 | 0.727%
Cc1ccc2oc(-c3ccc4c(c3)C(=O)N(C)C4=O)nc2c1 | 5.17%
COc1cccc(-n2cnc3cccc(N)c32)c1 | -13.3%
CC(C)C(NC(=O)C1CCC(C(C)(C)C)CC1)C(=O)NCCCN1CCCCC1 (stereo not drawn) | -5.67%
C#CCN1C(=O)S/C(=C\c2ccc(OC)c(C)c2)C1=O | 0.795%
COc1cc2c(cc1OC)C1(CCCC1)CNC2C (stereo not drawn) | -0.902%
CC(=O)N1CCN(c2ccc([N+](=O)[O-])c(N)c2)CC1 | -2.62%
Cc1ccc(OCC(O)CN2CCN(c3ccccc3F)CC2)cc1C (stereo not drawn) | 2.53%
CCN(CC)S(=O)(=O)c1ccc(S(=O)(=O)N2CCOCC2)cc1 | -3.9%
COCCCNC(=O)c1nnc(O)c2ccccc12 | 3.54%
Cc1nc2ccc(S(=O)(=O)NC(C(=O)NC(C)c3ccccc3)C(C)C)cc2s1 (stereo not drawn) | 1.62%
CCCNC(=O)NC1C(NC(=O)NCCC)N(C)C(=O)N1C (stereo not drawn) | -7.58%
Cc1ccc(-c2cn3nc(N4CCC(C(=O)NCc5ccccc5Cl)CC4)sc3n2)cc1 | 1.21%
Cc1ccc(NC(=O)c2ccc(C(=O)Nc3ccc(C)c(Cl)c3)cc2)cc1Cl | -1.22%
O=C(COC(=O)c1cccs1)c1ccc2c(c1)OCCO2 | 4.55%
CC(=O)c1ccc(NC(=O)c2cc(C)on2)cc1 | -2.09%
COc1ccc(-c2nonc2NC(=O)c2ccc(OC)c(Cl)c2)cc1 | 9.78%
NC(=O)c1c(NC(=O)C2CC2)sc2c1CCCCC2 | 50.4%
Cc1ccc(NC(=O)C(=O)NCC(C)(C)C)cc1C | -0.414%
Cc1cccc(CNC(=O)C(C)n2ccc3cc(S(=O)(=O)N4CCCC4)ccc32)c1 (stereo not drawn) | 0.931%
